PubChem BioAssay AID624417 (National Center for Advancing Translational Sciences (NCATS), 2012)
Screen size: about 410,000 compounds; about 6,400 (1.6%) were called active. Inconclusive means that the source gave no clear call. Such entries were picked first, then a sample of the others. The call rests on the fitted dose curve; in most records, active means well fitted inhibition curve with a large enough effect; inconclusive means small, poorly fitted or top-dose-only effect; inactive means no such curve, though single readings can be large or run the other way. Potencies beside an inconclusive call are fits to weak or partial responses and may not hold up.

What follows are molecules tested against Glucagon-like peptide 1 receptor (Homo sapiens) (UniProt P43220) (assay: qHTS of GLP-1 Receptor Inverse Agonists (Inhibition Mode)). Details: HEK293 GLP-1R CRE-luciferase, luminescence, 24 h, GLP-1R form is constitutively active; series mostly up to 38.3 µM.
Summary of the method: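 HEK293 cells stably co-expressing constitutively active GLP-1R and a cAMP-responsive luciferase reporter were seeded in DMEM with 10% Nu serum, given compounds after 12 h, and incubated 24 h at 37 deg C. Luminescence was then read.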
Further: nearly all actives have a fitted effect of over 55% in size.
Potency means the concentration at half of the fitted maximal effect; tags describe the fitted curve by direction and shape.

Sequence of UniProt P43220 (P43220 whole entry, looked up): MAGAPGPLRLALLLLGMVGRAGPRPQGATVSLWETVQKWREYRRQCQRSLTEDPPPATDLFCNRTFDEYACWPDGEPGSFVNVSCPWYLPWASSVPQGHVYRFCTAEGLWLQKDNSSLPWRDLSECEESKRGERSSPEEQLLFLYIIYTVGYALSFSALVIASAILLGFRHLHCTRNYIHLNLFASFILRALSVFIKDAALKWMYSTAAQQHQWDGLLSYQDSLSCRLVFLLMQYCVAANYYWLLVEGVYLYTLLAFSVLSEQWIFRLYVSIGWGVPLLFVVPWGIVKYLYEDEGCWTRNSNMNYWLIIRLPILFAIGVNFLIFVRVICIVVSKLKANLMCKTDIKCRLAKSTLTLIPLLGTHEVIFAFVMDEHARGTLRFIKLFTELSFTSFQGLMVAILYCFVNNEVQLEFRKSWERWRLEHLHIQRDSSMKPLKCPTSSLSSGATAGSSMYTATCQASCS

Potency, inactive:
O=C(Nc1cc2nn(-c3ccccc3)nc2cc1Cl)c1ccco1, COC(=O)Cc1ccc(NC(=O)c2ccc(Br)o2)cc1, CS(=O)(=O)c1ccc2nc(NC(=O)c3cc([N+](=O)[O-])cc([N+](=O)[O-])c3)sc2c1

Potency, inconclusive:
O=C(Nc1cccc(O)c1)c1cc(-c2ccco2)on1 31.6 µM [inhibitor, single point], S=C(NCCN1CCOCC1)N/N=C/c1c2ccccc2cc2ccccc12 11.2 µM [inhibitor, partial curve, poor fit], COc1cccc(-c2cccc(-c3nc(C(=O)NCc4ccc5c(c4)OCO5)cc4c3[C@H](CCO)N(S(=O)C(C)(C)C)C4)c2)c1 (some centres not stated) 28.2 µM [inhibitor, single point], CC(=O)c1cccc(Nc2c3c(nc4ccccc24)CCC3)c1 0.891 µM [inhibitor, full curve, poor fit], CCCn1c(NC(=O)c2ccccc2Br)nc2ccccc21 31.6 µM [inhibitor, single point], O=C(NCc1ccc(F)cc1)c1ccc(CSc2nc3ccncc3n2Cc2ccc(F)cc2)cc1 12.6 µM [inhibitor, partial curve, poor fit], CC(C(=O)NC(C)(C)C)n1c(-c2ccccc2)nc2ccccc21 (configuration not stated) 22.4 µM [inhibitor, partial curve, poor fit], C=C(C(=O)c1ccccc1)C(CC(=O)c1ccccc1)c1ccccc1 (configuration not stated) 4.47 µM [inhibitor, full curve, poor fit], CC(=O)c1ccc(S(=O)(=O)N2CCN(CCOc3ccccc3)CC2)cc1 31.6 µM [inhibitor, single point], Cc1cc(C(=O)Cn2ncc(Cl)c(Cl)c2=O)c(C)n1CC(F)(F)F 28.2 µM [inhibitor, single point], CCOC(=O)c1c(Nc2cccc(O)c2)nnc(-c2ccccc2)c1-c1ccccc1 28.2 µM [inhibitor, single point], COc1ccc(NC(=O)c2ccc(S(=O)(=O)NCc3cccnc3)cc2)cc1 8.91 µM [inhibitor, partial curve, poor fit], CC(=O)c1cccc(OCc2cc(C(=O)NCCC3=CCCCC3)no2)c1 11.2 µM [inhibitor, single point]

Potency, active:
Cc1cc(C)c(C)c(S(=O)(=O)N2CCC(C(=O)N3CCN(c4ccc(F)cc4)CC3)CC2)c1C 5.01 µM
